In all, about 52,000 compounds went through this assay and about 4,300 (8.3%) were called active. No stated cut-off is given here; in the data, active means survival mostly below about 52% (no sharp cut-off); inactive means mostly above about 56%. The list shows a part of the results.

For the assay, the system named is DeltatarO mutant. In words: S. aureus survival, RN4220 and DeltatarO strains – OD600, teichoic acid synthesis inhibitors, primary screen (AID 463173). The following applies: S. aureus RN4220 wild type/DeltatarO growth, OD600, 18 h, active compounds read low, screened at 18.75 µg/mL (by protocol).
Consider `Cc1c(C(=O)OC2CCC(C)CC2)[nH]c2c1C(=O)CC(c1ccc(N(C)C)cc1)C2` (stereo unspecified), for which the survival is inactive: 68%.
`CCc1ccc(OC(=O)CSc2nnc(-c3ccc(OC)c(OC)c3)o2)cc1`: the survival is inactive: 69%.
As for `Cc1c2cnn(CC(=O)NC(C)C)c(=O)c2c(C)n1Cc1cccc(Cl)c1`, the survival is inactive: 79%.
In the case of `O=C(CN1CCC(n2cnc3cc(F)ccc32)CC1)Nc1ccccc1Br`, the survival is inactive: 94%.
Then `COc1ccc(/C=C/c2nc(C#N)c(NCc3ccc(C)cc3)o2)cc1OC`, with inactive: 84%; and `CCNC(=O)c1ccc2c(c1)sc1nc(-c3cccc(OC)c3)cn12`, with inactive: 53%.
As for `CC(Oc1ccccc1)C(=O)Nc1cccc(-c2cn3cccnc3n2)c1` (stereo unspecified), the survival is inactive: 75%.
Turning to `CN(C)c1ccc(-c2nnc(-c3ccc(Cl)cc3)o2)cc1`, the survival was inactive: 59%.
In the case of `O=C(NCCc1ccccc1)c1ccc2c(c1)N(Cc1ccc(F)cc1Cl)C(=O)CS2`, the survival is active: 55%.
Consider `CCCc1nnc(SCC(=O)N2CCCc3ccccc32)n1CC`, for which the survival is inactive: 107%.
As for `Cc1ccc(NC(=O)N2CCC3(CC2)Oc2ccccc2C(=O)N3Cc2ccc(F)cc2)cc1`, the survival is inactive: 71%.
Then `Cc1cc2c(=O)[nH][nH]c(=S)n2n1`, with inactive: 75%; and `Cc1cc(C)c2c(=O)cc(C(=O)Nc3sc4c(c3C(=O)NCc3ccco3)CCCC4)oc2c1`, with inactive: 48%; and `CS(=O)(=O)CC[C@@H](C(=O)NCCc1ccccc1)N1Cc2ccccc2C1=O`, with inactive: 94%.
For `CN(c1nnc(NC(=O)Nc2ccccc2C(F)(F)F)s1)C1CCCCC1`, the survival is inactive: 100%.
Regarding `COc1ccc(NC(=O)Cn2c(=O)c3ccccc3n3nncc23)cc1Cl`, the survival was inactive: 105%.
Then `COCc1cc(C)nc2c1C(=O)NC(c1ccc(NC(C)=O)cc1)N2Cc1ccccc1` (stereo unspecified), with inactive: 74%; and `CC(C)(C)OC(=O)N1CCC(c2c(C(=O)N3CCN(C(=O)c4ccco4)CC3)cnn2-c2cccc(Cl)c2)CC1`, with inactive: 99%.
`CC(=O)c1ccc(NC(=O)c2nc(-c3ccc(Cl)cc3)n3c2CCCCC3)cc1`: the survival was inactive: 101%.
For the compound `Cc1ccccc1CSc1nc2c(sc3ccccc32)c(=O)n1CCCC(=O)NCCCOC(C)C`, the survival is inactive: 87%.
As for `COC(=O)c1cc(NC(=O)CC2C(=O)OCCN2Cc2ccccc2)cc(C(=O)OC)c1` (stereo unspecified), the survival was inactive: 178%.
Take `COc1cccc(OCC(=O)NC2CC(=O)N(c3cccc(OC)c3)C2)c1` (stereo unspecified): the survival is inactive: 106%.
On to `COc1ccc(N(CC(=O)N2CCc3ccccc3C2)S(=O)(=O)c2ccccc2)cc1`, for which the survival was inactive: 58%.
For the compound `CCOC(=O)c1nnn(C(CC)C(=O)Nc2ccc(F)cc2)c1C(=O)OCC` (stereo unspecified), the survival is inactive: 119%.
`COc1ccccc1C1C(C(=O)N2CCCCC2)=C(C)Nc2nc3ccccc3n21` (stereo unspecified): the survival is inactive: 80%.
Then `CCOc1ccc(S(=O)(=O)c2cn(CC)c3ccc(F)cc3c2=O)cc1`, with inactive: 91%; and `Cc1ccc(NC(=O)CN2C(=O)c3cccnc3Sc3ccccc32)c(Br)c1`, with inactive: 89%; and `Cc1ccc(Nc2c3c(nc4nncn24)CCC3)c(C)c1`, with inactive: 96%.
Then `COc1ccc2c(c1)-c1nc(NC(=O)c3cccc(Br)c3)sc1CC2`, with inactive: 51%; and `COCCN1Cc2cccc(C(=O)N(CC(=O)NC3CCCCC3)Cc3ccc4c(c3)OCO4)c2C1=O`, with inactive: 93%; and `Cn1c(=O)c2c(nc(CN3CCN(CCO)CC3)n2CCCc2ccccc2)n(C)c1=O`, with inactive: 100%.
With `O=C(C1COc2ccccc2O1)N(Cc1cccnc1)c1nc2c(F)cccc2s1` (stereo unspecified), the survival was inactive: 84%.
With `CCOC(=O)c1c(NC(=O)c2cc(-c3cccc(Cl)c3)on2)sc(C(C)=O)c1C`, the survival was inactive: 56%.
As to `CC1CCN(S(=O)(=O)c2cc(C(=O)N3CCN(c4cccc(Cl)c4)CC3)n(C)c2)CC1`, the survival is inactive: 70%.
Turning to `CCOC(=O)c1c(C)oc2nc(C)nc(NCC3CCN(Cc4cc(C)ccc4C)CC3)c12`, the survival was inactive: 80%.
Turning to `CCCN(C(=O)CCc1nc(-c2ccc(C)cc2)no1)c1ccc(OCC)cc1`, the survival was active: -4%.
With `Cc1ccc(N2C(=O)C(CC(=O)Nc3cccc(F)c3)N(CCc3ccccc3F)C2=O)cc1` (stereo unspecified), the survival was inactive: 110%.
Then `O=C1NCCCC1C(=O)N1CCc2ccccc21` (stereo unspecified), with inactive: 101%; and `CC1=NN(c2ccccc2)C(=O)C1CCC#N` (stereo unspecified), with inactive: 85%; and `CSc1ccc(CCNC(=O)Cn2c(C)c3cnn(-c4ccccc4)c(=O)c3c2C)cc1`, with inactive: 89%.
Then `Cc1cccc2cc(C#N)c(N3CCC(C)CC3)nc12`, with inactive: 76%; and `COc1cccc(/C=C/c2nc(C#N)c(NC3CCCCC3)o2)c1`, with inactive: 69%; and `CCc1cccc(NC(=O)CSc2nnc(-c3cc4occc4n3C)n2-c2ccccc2C)c1`, with inactive: 89%.
Then `Cc1ccc(-n2nc(CO)c(C(=O)NCCC(C)C)n2)cc1C`, with inactive: 100%; and `COc1cccc(-n2c(=O)c3sc4ccccc4c3n(Cc3c(F)cccc3Cl)c2=O)c1`, with inactive: 88%; and `Cc1ccc(CNC(=O)c2ccc(Cn3c(SCc4ccc(F)cc4)nc4cccnc43)cc2)o1`, with inactive: 81%.
With `O=c1n(Cc2ccc(F)cc2)c2ccccc2c2nc(-c3ccccc3)nn12`, the survival was inactive: 86%.
For `O=C(CN1C(=O)COc2ccccc21)c1ccc(Cl)cc1`, the survival is inactive: 74%.
Then `Cc1cccc(C(=O)Nc2ccccc2OCc2cc(=O)n3ccccc3n2)c1`, with inactive: 88%; and `CCOc1ccc(NC(=O)c2cn(C3CCCCC3)c(=O)c3c2c2ccccc2n3C)cc1`, with inactive: 72%.
Then `COc1ccc(C)cc1NS(C)(=O)=O`, with inactive: 75%.
With `Cc1ccc(-c2nnc(SCC(=O)NC(C)(C)C)nc2-c2ccc(C)cc2)cc1`, the survival is inactive: 80%.
For `N#C/C(=C/c1cccs1)C(=O)O`, the survival was inactive: 98%.
In the case of `Cn1c(=O)c2c(nc(NCCc3ccccc3)n2Cc2ccccc2Br)n(C)c1=O`, the survival is inactive: 54%.
For the compound `CCOc1ccc(C(=O)N(Cc2nc(-c3cccc(C)c3)no2)C(C)C)cc1`, the survival is active: 0%.
For `COc1cccc2c1cc1c(=O)n(CC(=O)N3CCN(c4ccc(F)cc4)CC3)nc(C)n12`, the survival is inactive: 87%.
Then `N#Cc1cc(Cl)c(N2CCCCCC2)cc1C#N`, with inactive: 84%; and `O=C(CCCSc1nc(-c2ccco2)cc(C(F)(F)F)n1)NCC1CCCO1` (stereo unspecified), with inactive: 56%; and `CC1=NN(C(C#N)c2ccccc2)C(C)(C)C1` (stereo unspecified), with inactive: 104%.
As to `CCCS(=O)(=O)c1nc(S(=O)(=O)c2ccc(C)cc2)c(NCCCOC(C)C)s1`, the survival is inactive: 102%.
On to `COc1ccc2nc(SCC(O)c3cccc(Br)c3)[nH]c2c1` (stereo unspecified), for which the survival is inactive: 76%.
As for `Cc1ccc(Sc2ccc(N3CCCC(C(=O)Nc4ccc(F)cc4)C3)nn2)cc1` (stereo unspecified), the survival was inactive: 55%.
For the compound `O=C(Cn1nc(N2CCN(c3ccccc3)CC2)ccc1=O)NCc1ccccc1F`, the survival is inactive: 84%.
For the compound `CCN(CC)C(=O)CSc1nc2cc3c(cc2c(=O)n1CCCC(=O)NCc1ccc2c(c1)OCO2)OCO3`, the survival is inactive: 91%.
Then `COc1ccc(CCNC(=O)C(=O)NCC(c2cccs2)S(=O)(=O)c2cccs2)cc1` (stereo unspecified), with inactive: 78%.
Turning to `Cn1c(=O)c2[nH]c(=S)[nH]c2n(C)c1=O`, the survival was inactive: 103%.
Then `CCOc1ccccc1Nc1nc2ccccc2nc1NS(=O)(=O)c1ccc(Cl)cc1`, with inactive: 79%; and `COc1ccc(C(=O)n2nc(-c3cccnc3)nc2NCc2ccccc2)cc1OC`, with inactive: 81%.
Then `CC(=O)N1CCCc2cc(S(=O)(=O)N3CCC(C(=O)Nc4c(C)cccc4C)CC3)ccc21`, with inactive: 71%; and `COc1ccc(-c2nc(CN3CCC(C(=O)NCc4ccc(C)cc4)CC3)c(C)o2)cc1OC`, with inactive: 68%.
In the case of `CCOc1ccc(CNC(=O)CCCn2c(=O)c3cccn3c3ccccc32)cc1`, the survival was inactive: 55%.
Regarding `NC(=O)c1c(NC(=O)CN2CCCC2)sc2c1CCCC2`, the survival is inactive: 74%.
Regarding `Cc1ccc(Cn2c(C)c3cnn(CC(=O)O)c(=O)c3c2C)cc1`, the survival is inactive: 106%.
Take `O=C(Cn1cc(SCc2ccc(F)cc2)c2ccccc21)N1CCCCC1`: the survival is inactive: 79%.
On to `O=C(Nc1cccc(C(=O)OCc2cc(=O)n3c4c(sc3n2)CCCC4)c1)c1ccc(Cl)cc1`, for which the survival is inactive: 93%.
Turning to `COc1ccc(NC(=O)Cn2c(=O)n(CCCCCC(=O)NCc3ccc4c(c3)OCO4)c(=O)c3sccc32)cc1Cl`, the survival is inactive: 78%.
Consider `CCCSc1oc(-c2cccs2)nc1S(=O)(=O)c1ccc(C)cc1`, for which the survival is inactive: 41%.
With `CCc1nnc(SCc2cccc(Cl)c2)c2cc3sccc3n12`, the survival was active: -2%.
With `COc1ccc(-c2cc(OC(=O)c3ccccc3Cl)c3c(C)oc(C)c3c(=O)c2)cc1OC`, the survival is inactive: 82%.
Then `CCOc1cccc(C(=O)Nc2ccc3oc(-c4ccncc4)nc3c2)c1`, with inactive: 70%; and `CC1CCN(C(=O)COc2ccccc2Cl)CC1`, with inactive: 101%; and `Cc1nc2ccccc2n1C(=O)N(C)C`, with inactive: 78%.
Take `Cc1cc(F)ccc1NC(=O)Cn1nc(N2CCN(c3ccccc3)CC2)ccc1=O`: the survival is inactive: 80%.
Consider `COc1ccc2c(CNC3CCCCCC3)c(C(=O)O)n(Cc3ccc(C)cc3)c2c1`, for which the survival is inactive: 71%.
With `COc1ccc(CNC(=O)CN2C(=O)COc3ccc(S(=O)(=O)N4CCCCC4)cc32)cc1`, the survival is inactive: 83%.
As for `O=C(CCCn1ncn2c(cc3occc32)c1=O)NCc1ccccc1F`, the survival is inactive: 86%.
Turning to `Cc1cc(C)c2oc(C(=O)Nc3ccc(S(=O)(=O)Nc4ncccn4)cc3)cc(=O)c2c1`, the survival was inactive: 65%.
Regarding `CCC(CC)NCc1ccc(OC)c(C)c1OC`, the survival is inactive: 92%.
On to `Cc1cc2c(cc1S(=O)(=O)C(C)CC(=O)NC1CCC(C)CC1)OCC(=O)N2` (stereo unspecified), for which the survival is inactive: 92%.
As to `O=C(Nc1ccccc1C(F)(F)F)c1cc2nc(-c3ccccc3)cc(-c3ccccc3)n2n1`, the survival was inactive: 61%.
Then `CCc1ccc2c(c1)NC(c1ccc(F)cc1)=NC(c1ccncc1)=N2`, with inactive: 89%.

Values taken from PubChem BioAssay AID463173 (ICCB-Longwood Screening Facility, Harvard Medical School, 2010).
